Data taken from PubChem BioAssay AID1745845 (National Center for Advancing Translational Sciences (NCATS), 2022).
Among all 360,000 compounds or so, about 2,600 (0.72%) were called active. The inconclusive results got no clear call from the source; some entries with a clear call stand among them for comparison. Calls come from the whole dose curve; as a rule, active = well fitted inhibition curve with a large enough effect; inconclusive = small, poorly fitted or top-dose-only effect; inactive = no such curve, though single readings can be large or run the other way. Where the call is inconclusive, the potency comes from a doubtful curve fit.

experiment: Primary qHTS for Inhibitors of ATXN expression; conditions: HEK-293 ATXN2-luciferase reporter, luminescence, 24 h; activity change, negative = inhibition: at 57 µM (top of the series); note: nearly all actives have a fitted effect of over 55% in size
In short: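 ATXN2-luciferase reporter cells (luciferase flanked by upstream and downstream ATXN2 gene portions) were treated 24 h at 37 °C with compounds at up to 57 uM. SteadyGlo luminescence gave expression; GF-AFC fluorescence gave viability.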
% is set by controls: 0 for no effect and ±100 for the full control effect; potency is the fitted concentration of half-maximal effect; tags give direction and shape of the fitted curve.

Structure (SMILES)	Potency	activity change, negative = inhibition
Cc1cccc(C)c1NC(=O)Cn1nnc(-c2ccc(N3CCOCC3)cc2)n1	inconclusive: 22.4 µM [inhibitor, single point]	–
COc1cccc(/C=N/NC(=O)CNC(=O)c2cccs2)c1O	inconclusive: 17.8 µM [inhibitor, single point]	–
Cc1csc(NC(=O)CSCC(=O)O)c1-c1nc2ccccc2s1	inconclusive: 7.08 µM [inhibitor, partial curve, poor fit]	–
COc1cccc(CC2(CO)CCCN(Cc3ccccc3Cl)C2)c1 (stereo not given)	–	inactive: 26.8%
O=C(CSCC(=O)Nc1ccccc1)N/N=C/c1c(O)ccc2ccccc12	active: 3.16 µM	–
CCC(C)(C)n1nnnc1CN(Cc1cc2cc(OC)ccc2[nH]c1=O)C1CCCC1	–	inactive: -1.51%
COC(=O)c1ccc2[nH]c3cccc(/C(=C/c4ccccc4)c4ccccc4)c3c2c1	inconclusive: 39.8 µM [inhibitor, single point]	–
O=C(Cc1ccc(Cl)c(Cl)c1)Nc1ccccc1N1CCCC1	inconclusive: 35.5 µM [inhibitor, partial curve, poor fit]	–
COc1ccc(OCC(=O)Nc2nccs2)cc1	inconclusive: 16.8 µM [inhibitor, single point]	–
CCCCCCCCNS(=O)(=O)CCNC1CCCCC1	inconclusive: 25.1 µM [inhibitor, single point]	–
CCOc1ccc(/C=C/C2=CC(C)(C)NC(=S)N2)cc1	inconclusive: 26.7 µM [inhibitor, partial curve, poor fit]	–
COc1cccc(/C=c2\s/c(=C\C(=O)C(C)(C)C)[nH]c2=O)c1	–	inactive: -7.41%
Cc1cc2c(cc1C)N[C@]1(C[C@H]3CCCC(=O)N4CC[C@@H](C1)[C@@H]34)C(=NC(C)(C)CC(C)(C)C)N2	–	inactive: -16%
CSc1ccc(CN2CCC(n3nccc3NC(=O)CCCc3ccccc3)CC2)cc1	inconclusive: 4.47 µM [inhibitor, partial curve, poor fit]	–
COc1ccc(-c2nc(C)c(CCNC(=O)C(=O)Nc3cccc(F)c3)s2)cc1OC	–	inactive: 13.2%
COc1cccc(C(=O)N2CCN(Cc3ccc4c(c3)OCO4)CC2)c1OC	–	inactive: -16.8%
O=C(NCC(=O)N1CCN(C/C=C/c2ccccc2)CC1)c1ccc(Br)cc1	inconclusive: 22.4 µM [inhibitor, single point]	–
CC[C@@]12C(=O)N(c3ccc(C)cc3)C(=O)N1[C@H](c1ccc(Br)cc1)[C@@H]1C(=O)N(C(C)(C)C)C(=O)[C@@H]12	inconclusive: 25.1 µM [inhibitor, partial curve, poor fit]	–
CCCC(=O)N1CCCC(c2cc(C(=O)Nc3ccccc3)no2)C1 (stereo not given)	active: 11.2 µM	–
C=CS(=O)(=O)c1sc(Cl)c(N2CCOCC2)c1[N+](=O)[O-]	inconclusive: 37.7 µM [inhibitor, single point]	–
COc1ccc(C(C)(O)c2nc(-c3ccoc3)cs2)cc1 (stereo not given)	–	inactive: 9.42%
COc1ccccc1-c1cc(C(F)(F)F)nc(S(=O)(=O)CCCC(=O)N2CCCCC2C)n1 (stereo not given)	inconclusive: 39.8 µM [inhibitor, single point]	–

Structure (SMILES)	Potency	activity change, negative = inhibition
C=CCC[C@@H](Cc1ccc(F)cc1)C(=O)OC[C@H](Cc1c[nH]c2ccccc12)NC(=O)[C@H](CC=C)CC(=O)NCCO	inconclusive: 35.5 µM [inhibitor, single point]	–
Cc1ccccc1NC(=S)NCc1ccc2[nH]c3c(c2c1)CCCC3	inconclusive: 35.5 µM [inhibitor, single point]	–
COc1ccc(O)c(-c2[nH]ncc2C(=O)c2ccccc2)c1	–	inactive: 1.39%
Cc1cc(C)cc(OCC(=O)NCC(c2ccc(Cl)cc2)N2CCCCC2)c1 (stereo not given)	inconclusive: 17.8 µM [inhibitor, single point]	–
CCOC(=O)c1c(C)n2c3c(cc(C)cc13)CCC2	inconclusive: 1.68 µM [inhibitor, partial curve, poor fit]	–
Cc1ccccc1C(=O)Nc1nnc(-c2ccc(F)cc2)o1	inconclusive: 35.5 µM [inhibitor, single point]	–
CC(C)(C)NC(=O)c1cccc(NC(=O)c2ccc3c(c2)C(=O)N(C(C)(C)C)C3=O)c1	–	inactive: -11.8%
COc1ccc(C2c3ccc4ccccc4c3Oc3ncn(CCCN(C)C)c(=N)c32)cc1 (stereo not given)	–	inconclusive: -97.1% [inhibitor]
CC(=O)n1cc([C@@H]2C=C(C(=O)N3CCN(Cc4ccccc4)CC3)O[C@H](OCc3ccc(CO)cc3)C2)c2ccccc21	inconclusive: 28.2 µM [inhibitor, single point]	–
CCN(C(=O)Cn1c(C(=O)OC)cc2oc3ccccc3c21)c1cccc(C)c1	inconclusive: 39.8 µM [inhibitor, single point]	–
C[N+](C)(C)CCC(=O)N1C/C(=C/c2ccccc2)C(=O)/C(=C\c2ccccc2)C1	active: 8.44 µM	–
O=C(CCCN1CC=C(n2c(=O)[nH]c3ccccc32)CC1)c1ccc(F)cc1	inconclusive: 39.8 µM [inhibitor, single point]	–
CN1CCN(c2ccc(-c3cc(NC=O)c4ncc(-c5ccc(F)c(Cl)c5)n4c3)cc2)CC1	inconclusive: 39.8 µM [inhibitor, single point]	–
COc1ccc(CC(=O)Nc2ccc3nc(Nc4cccc(Cl)c4)cc(C)c3c2)cc1OC	inconclusive: 12.6 µM [inhibitor, partial curve]	–
Cc1cc(C(=O)N/N=C/c2ccc([N+](=O)[O-])s2)c2ccccc2n1	inconclusive: 2.82 µM [inhibitor, partial curve]	–
COc1ccc(Cl)cc1S(=O)(=O)NCCCn1ccnc1	–	inactive: 5.75%
CCc1ccc2c(c1)c1nnc(NN)nc1n2CC	inconclusive: 20 µM [inhibitor, single point]	–
CCN(CC)C(=O)C1=C(C)N(Cc2ccc(C(C)(C)C)cc2)C(=O)C(CC(=O)NC(c2ccccc2)c2ccccc2)C1 (stereo not given)	inconclusive: 39.8 µM [inhibitor, single point]	–
O=C1N(Cc2cccc(Cl)c2)C[C@@H]2C[C@@H](c3cccc4cccnc34)N3CCC[C@@]123	inconclusive: 17.8 µM [inhibitor, single point]	–
Cc1ccc(CN2CCCn3nc(C(=O)NCCC(C)C)cc3C2=O)cc1	–	inactive: 7.72%
O=[N+]([O-])c1ccc(O)c(/C=N/Nc2ncnc3c2cnn3-c2ccccc2)c1	active: 2.82 µM	–
COC(=O)CCC(=O)Nc1c(C)n(C)n(-c2ccccc2)c1=O	–	inactive: -3.27%

Structure (SMILES)	Potency	activity change, negative = inhibition
Cc1ccc(NC(=O)c2ccc(N/N=C/c3cccc(O)c3)c([N+](=O)[O-])c2)cc1	inconclusive: 22.4 µM [inhibitor, single point]	–
c1ccc(-c2cn3c(n2)CCc2ccc4cccnc4c2-3)cc1	inconclusive: 39.8 µM [inhibitor, single point]	–
CCOC(=O)CCC(=O)Nc1ncnc2c1C(c1ccccc1)c1c(ccc3ccccc13)O2 (stereo not given)	inconclusive: 39.8 µM [inhibitor, single point]	–
Cn1cc([N+](=O)[O-])c(C(=O)Nc2nc(-c3ccc(Cl)cc3)cs2)n1	–	inactive: 3.32%
COCCNc1nc(NCc2ccccc2OC)c2sccc2n1	inconclusive: 12.6 µM [inhibitor, partial curve, poor fit]	–
COc1cc2nc(CN(C)Cc3ccc(Cl)cc3)[nH]c(=O)c2cc1OC	inconclusive: 21.2 µM [inhibitor, single point]	–
COc1ccc(-c2sc3cc4c(cc3c2C#CC2(N)CCCCC2)OCO4)cc1	inconclusive: 39.8 µM [inhibitor, single point]	–
Cc1ccc(C(=O)NNC(=O)CSc2nnc3c(n2)[nH]c2ccc(F)cc23)cc1	inconclusive: 39.8 µM [inhibitor, single point]	–
COc1cc([N+](=O)[O-])cc(/C=N/NC(=O)C(C)Nc2cccc3ccccc23)c1O (stereo not given)	active: 20 µM	–
S=C(NCCCN1CCN(CCCNC(=S)NC2CCCCC2)CC1)NC1CCCCC1	inconclusive: 14.1 µM [inhibitor, partial curve, poor fit]	–
Cc1ccc2nc(C)c3c(c2c1)OC(C(C)(Cl)Br)C3 (stereo not given)	inconclusive: 10 µM [inhibitor, partial curve]	–
O=C1CCCC(=NCc2ccco2)C1	–	inactive: 9.62%
COC(=O)c1ccccc1NC(=O)c1ccc(=O)n(Cc2cccc(C)c2)c1	–	inactive: -6.72%
C[C@H](CO)N1C[C@H](C)[C@@H](CN(C)Cc2ccc(C(=O)O)cc2)Oc2ncc(-c3ccc(C(=O)N(C)C)cc3)cc2C1=O	–	inactive: 6.17%
CC(C)(C)c1ccc(OCCON2C(=O)CCC2=O)c(Cl)c1	–	inactive: -28.6%
Cn1c2c(c(=O)n(C)c1=O)C(C(F)(F)F)(C(F)(F)F)N=C(CCC1CCCCC1)N2	inconclusive: 29.9 µM [inhibitor, partial curve, poor fit]	–
CCc1cc(-c2nnn(CCC3COCCO3)c2C(C)(C)O)ccc1-c1cn(CCc2c[nH]c3ccccc23)nn1 (stereo not given)	inconclusive: 39.8 µM [inhibitor, single point]	–
Oc1ccc(C[C@H]2CNCCN2CCc2cc(C(F)(F)F)cc(C(F)(F)F)c2)cc1	inconclusive: 39.8 µM [inhibitor, single point]	–
COc1nccc(-c2c(-c3ccc(F)cc3)ncn2C2CCNCC2)n1	inconclusive: 21.7 µM [inhibitor, partial curve]	–
CN(C(=O)c1cc2nc(-c3ccc4c(c3)OCO4)cc(C(F)(F)F)n2n1)c1ccc(OC(F)(F)F)cc1	–	inactive: 9.69%
COc1cc(OC)c2c(-c3ccccc3)cc(=O)oc2c1C(CC(=O)N1CCCC1)c1ccc2c(c1)OCO2 (stereo not given)	inconclusive: 35.5 µM [inhibitor, single point]	–
